# Data as given in article PMC10641269.
# Chains of the proteins cited; added tags and fusions are not shown.
# UniProt Q64JB6: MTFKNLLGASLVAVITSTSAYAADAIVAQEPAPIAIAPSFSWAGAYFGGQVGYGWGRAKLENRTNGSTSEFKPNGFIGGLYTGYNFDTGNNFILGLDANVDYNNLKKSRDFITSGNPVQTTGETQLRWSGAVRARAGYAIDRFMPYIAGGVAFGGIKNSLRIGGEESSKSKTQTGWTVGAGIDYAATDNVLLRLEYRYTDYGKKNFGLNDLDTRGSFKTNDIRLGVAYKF
# UniProt Q99836: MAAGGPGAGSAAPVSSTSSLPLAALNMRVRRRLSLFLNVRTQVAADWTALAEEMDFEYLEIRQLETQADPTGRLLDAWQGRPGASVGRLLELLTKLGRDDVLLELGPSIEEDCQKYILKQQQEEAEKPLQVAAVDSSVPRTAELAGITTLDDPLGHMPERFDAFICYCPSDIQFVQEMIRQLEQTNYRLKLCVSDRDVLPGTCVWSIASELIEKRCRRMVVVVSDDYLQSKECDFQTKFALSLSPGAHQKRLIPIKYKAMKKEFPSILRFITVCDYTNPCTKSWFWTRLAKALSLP
# UniProt P58753: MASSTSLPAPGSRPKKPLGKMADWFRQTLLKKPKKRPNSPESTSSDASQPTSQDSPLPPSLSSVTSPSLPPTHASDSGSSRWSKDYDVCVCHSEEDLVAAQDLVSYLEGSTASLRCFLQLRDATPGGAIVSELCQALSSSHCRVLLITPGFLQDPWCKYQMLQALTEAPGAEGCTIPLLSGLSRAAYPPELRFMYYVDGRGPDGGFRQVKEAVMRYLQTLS
# UniProt O60603: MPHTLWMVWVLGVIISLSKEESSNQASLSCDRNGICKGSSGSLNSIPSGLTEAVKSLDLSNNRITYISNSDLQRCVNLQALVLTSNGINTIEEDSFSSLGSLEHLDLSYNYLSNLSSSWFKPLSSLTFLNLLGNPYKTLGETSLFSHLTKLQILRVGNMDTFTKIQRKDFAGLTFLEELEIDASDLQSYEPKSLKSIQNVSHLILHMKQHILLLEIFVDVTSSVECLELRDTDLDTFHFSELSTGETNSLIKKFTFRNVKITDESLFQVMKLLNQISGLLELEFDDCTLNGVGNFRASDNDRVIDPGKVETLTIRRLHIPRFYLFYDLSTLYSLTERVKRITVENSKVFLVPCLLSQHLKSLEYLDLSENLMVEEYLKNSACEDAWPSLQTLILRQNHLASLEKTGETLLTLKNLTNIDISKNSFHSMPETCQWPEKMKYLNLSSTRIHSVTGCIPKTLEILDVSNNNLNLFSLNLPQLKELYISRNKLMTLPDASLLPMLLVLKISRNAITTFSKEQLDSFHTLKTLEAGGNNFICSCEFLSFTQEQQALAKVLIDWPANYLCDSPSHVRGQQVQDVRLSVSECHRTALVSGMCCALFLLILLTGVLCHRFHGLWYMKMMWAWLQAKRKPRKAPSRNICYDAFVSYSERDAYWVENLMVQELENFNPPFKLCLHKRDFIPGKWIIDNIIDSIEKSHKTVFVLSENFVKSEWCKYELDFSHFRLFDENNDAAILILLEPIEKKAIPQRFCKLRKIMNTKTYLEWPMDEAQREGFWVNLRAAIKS
# UniProt Q86XR7: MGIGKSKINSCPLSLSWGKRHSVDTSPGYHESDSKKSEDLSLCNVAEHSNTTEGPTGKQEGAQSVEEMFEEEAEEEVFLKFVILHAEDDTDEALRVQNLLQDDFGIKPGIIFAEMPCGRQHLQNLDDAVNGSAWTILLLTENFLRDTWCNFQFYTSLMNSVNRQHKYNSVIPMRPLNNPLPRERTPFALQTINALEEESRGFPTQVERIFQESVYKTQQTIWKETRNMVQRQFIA
# UniProt Q8IUC6: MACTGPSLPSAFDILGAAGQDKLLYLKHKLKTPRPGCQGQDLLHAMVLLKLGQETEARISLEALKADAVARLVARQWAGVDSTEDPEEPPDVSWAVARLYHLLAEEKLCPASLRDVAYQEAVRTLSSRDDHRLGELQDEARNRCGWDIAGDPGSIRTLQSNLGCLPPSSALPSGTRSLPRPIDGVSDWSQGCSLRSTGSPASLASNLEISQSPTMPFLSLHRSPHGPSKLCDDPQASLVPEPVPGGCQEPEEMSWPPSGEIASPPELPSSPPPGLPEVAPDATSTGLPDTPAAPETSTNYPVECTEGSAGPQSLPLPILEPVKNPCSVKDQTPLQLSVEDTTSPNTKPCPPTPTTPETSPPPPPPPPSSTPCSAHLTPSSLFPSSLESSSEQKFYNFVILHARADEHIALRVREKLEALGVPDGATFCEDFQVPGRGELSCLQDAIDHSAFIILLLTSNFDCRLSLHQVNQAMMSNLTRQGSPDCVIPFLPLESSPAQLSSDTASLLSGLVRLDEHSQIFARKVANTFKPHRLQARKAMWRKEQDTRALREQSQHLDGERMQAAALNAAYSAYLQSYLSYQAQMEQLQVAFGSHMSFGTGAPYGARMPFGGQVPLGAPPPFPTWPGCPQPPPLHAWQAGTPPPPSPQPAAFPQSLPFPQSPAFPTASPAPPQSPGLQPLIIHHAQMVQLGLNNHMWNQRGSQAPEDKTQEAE
# No constants are given. Whether binding was seen depends on the method and setting. Some binding calls cover weakened binding; strength is not graded here. Where a sequence is shown, tags or fusion partners need not be part of it.
# B1: TLR9 fused with the DNA activation domain (prey) (receptor, UniProt Q9NR96 1-1032)
# chain: MGFCRSALHPLSLLVQAIMLAMTLALGTLPAFLPCELQPHGLVNCNWLFLKSVPHFSMAAPRGNVTSLSLSSNRIHHLHDSDFAHLPSLRHLNLKWNCPPVGLSPMHFPCHMTIEPSTFLAVPTLEELNLSYNNIMTVPALPKSLISLSLSHTNILMLDSASLAGLHALRFLFMDGNCYYKNPCRQALEVAPGALLGLGNLTHLSLKYNNLTVVPRNLPSSLEYLLLSYNRIVKLAPEDLANLTALRVLDVGGNCRRCDHAPNPCMECPRHFPQLHPDTFSHLSRLEGLVLKDSSLSWLNASWFRGLGNLRVLDLSENFLYKCITKTKAFQGLTQLRKLNLSFNYQKRVSFAHLSLAPSFGSLVALKELDMHGIFFRSLDETTLRPLARLPMLQTLRLQMNFINQAQLGIFRAFPGLRYVDLSDNRISGASELTATMGEADGGEKVWLQPGDLAPAPVDTPSSEDFRPNCSTLNFTLDLSRNNLVTVQPEMFAQLSHLQCLRLSHNCISQAVNGSQFLPLTGLQVLDLSHNKLDLYHEHSFTELPRLEALDLSYNSQPFGMQGVGHNFSFVAHLRTLRHLSLAHNNIHSQVSQQLCSTSLRALDFSGNALGHMWAEGDLYLHFFQGLSGLIWLDLSQNRLHTLLPQTLRNLPKSLQVLRLRDNYLAFFKWWSLHFLPKLEVLDLAGNQLKALTNGSLPAGTRLRRLDVSCNSISFVAPGFFSKAKELRELNLSANALKTVDHSWFGPLASALQILDVSANPLHCACGAAFMDFLLEVQAAVPGLPSRVKCGSPGQLQGLSIFAQDLRLCLDEALSWDCFALSLLAVALGLGVPMLHHLCGWDLWYCFHLCLAWLPWRGRQSGRDEDALPYDAFVVFDKTQSAVADWVYNELRGQLEECRGRWALRLCLEERDWLPGKTLFENLWASVYGSRKTLFVLAHTDRVSGLLRASFLLAQQRLLEDRKDVVVLVILSPDGRRSRYVRLRQRLCRQSVLLWPHQPSGQRSFWAQLGMALTRDNHHFYNRNFCQGPTAE
# Target: Omp25d fused with the GAL4 DNA-binding domain (pBD-Omp25d, bait) (B. neotomae) (UniProt Q64JB6)
# Assay: two-hybrid
row,Molecule,binding
1,MYD88 fused with the DNA activation domain (prey) (from UniProt Q99836 1-296),no binding
2,TIRAP fused with the DNA activation domain (prey) (from UniProt P58753 1-221),binds
3,TLR2 fused with the DNA activation domain (prey) (from UniProt O60603 1-784) (receptor),binds
4,TRAM fused with the DNA activation domain (prey) (from UniProt Q86XR7 1-235),binds
5,TRIF fused with the DNA activation domain (prey) (from UniProt Q8IUC6 1-712),binds
6,B1,binds
